Source: PubChem BioAssay AID652104 (National Center for Advancing Translational Sciences (NCATS), 2013)
The whole screen tested about 410,000 compounds, of which about 7,200 (1.8%) were called active. The shares of active, inactive and inconclusive entries below differ from those in the screen. The call rests on the fitted dose curve; in most records, active means well fitted activation curve with a large enough effect; inconclusive means small, poorly fitted or top-dose-only effect, or another doubt; inactive means no such curve, though single readings can be large or run the other way. Where the call is inconclusive, the potency comes from a doubtful curve fit.

test: qHTS of TDP-43 Inhibitors; details: TDP-43 expressing yeast growth rescue, BacTiter-Glo, 24 h; series mostly up to 46.1 µM; further: nearly all actives have a fitted effect of over 50% in size
In short: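 Cell-based yeast growth screen: TDP-43 expression induced in galactose, inoculum OD600=0.02 after raffinose pregrowth to mid-log. Read-out BacTiter-Glo luminescence at 24 hr, 30 deg C; inhibition of toxicity seen as signal increase.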
Potency means the concentration at half of the fitted maximal effect; tags describe the fitted curve by direction and shape.

Potency, active:
O=C1c2ccccc2C(=O)N1CCc1c(-c2ccccc2)[nH]c2ccccc12 11.2 µM
C=CCc1cccc(/C=N/NC(=O)c2ccccc2Br)c1O 15.8 µM
CCCCSc1nsc(NC(C)=O)n1 12.6 µM

Potency, inconclusive:
Cc1ccc(C)c(Nc2ncccc2C(=O)NCc2cccs2)c1 35.5 µM [activator, partial curve]
Cc1ccc(C(=O)COC(=O)C(C)N2C(=O)C3C4CCC(C4)C3C2=O)cc1C (centres undefined) 15.8 µM [activator, partial curve, poor fit]
O=C(NCc1ccccc1)C(c1cc2ccccc2o1)n1c(=O)c(-c2cc3ccccc3[nH]2)nc2ccccc21 (centres undefined) 6.31 µM [activator, single point]
COc1ccc(-n2nnnc2S(=O)(=O)CC(=O)N2CCCCC2)cc1 35.5 µM [activator, partial curve, poor fit]
Cn1cc(S(=O)(=O)c2cccc(Cl)c2)c(=O)c2cc(F)c(N3CCN(c4ccccc4)CC3)cc21 3.16 µM [activator, partial curve]
Cc1nn(-c2ccccc2)c(C)c1/C=N/n1c(-c2ccccc2Br)n[nH]c1=S 35.5 µM [activator, single point]
Cc1ccc(C(=O)NCC(=O)OCc2cccc(Br)c2)cc1 11.2 µM [activator, partial curve]
Cc1ccc(S(=O)(=O)Nc2ncnc3sccc23)cc1C 11.2 µM [activator, partial curve]
CC(=O)c1cc(C)ccc1OC(=O)CN1C(=O)c2ccccc2C1=O 31.6 µM [activator, single point]
CCOC(=O)c1sc(Nc2nc3ccc(OC)cc3s2)cc1C 22.4 µM [activator, single point]
N#Cc1cnn(-c2ccc([N+](=O)[O-])cc2[N+](=O)[O-])c1N 14.1 µM [activator, partial curve, poor fit]

Potency, inactive:
O=C(Nc1cc(F)ccc1F)N1CCC(CN2CCCC2)CC1
Cc1cccn2c(=O)c(/C=N/O)c(NCc3ccccc3)nc12
COc1cccc(C(=O)Nc2c3c(nn2-c2cccc(C)c2C)CS(=O)(=O)C3)c1OC
Cc1cc(S(=O)(=O)Nc2ccc(-c3ccc(N4CCCCCC4)nn3)cc2)c(C)cc1Cl
COc1ccc(NC(=O)CSc2nc3ccccc3n2Cc2cccc(OC)c2)cc1
